Measured values taken from PubChem BioAssay AID485294 (National Center for Advancing Translational Sciences (NCATS), 2010).
Screen size: about 370,000 compounds; about 150 (0.041%) were called active. Inconclusive results, whose numbers are uncertain, are shown with a selection of clear calls. Calls follow the shape of the dose curve; as a rule, active = well fitted inhibition curve with a large enough effect; inconclusive = small, poorly fitted or top-dose-only effect; inactive = flat fitted curve, though single readings scatter. No potency is given beside an inconclusive call; the fits are too rough.

Molecular target: Beta-lactamase (Escherichia coli (strain K12)) (UniProt P00811)
Chain of UniProt P00811 (P00811 whole entry, looked up): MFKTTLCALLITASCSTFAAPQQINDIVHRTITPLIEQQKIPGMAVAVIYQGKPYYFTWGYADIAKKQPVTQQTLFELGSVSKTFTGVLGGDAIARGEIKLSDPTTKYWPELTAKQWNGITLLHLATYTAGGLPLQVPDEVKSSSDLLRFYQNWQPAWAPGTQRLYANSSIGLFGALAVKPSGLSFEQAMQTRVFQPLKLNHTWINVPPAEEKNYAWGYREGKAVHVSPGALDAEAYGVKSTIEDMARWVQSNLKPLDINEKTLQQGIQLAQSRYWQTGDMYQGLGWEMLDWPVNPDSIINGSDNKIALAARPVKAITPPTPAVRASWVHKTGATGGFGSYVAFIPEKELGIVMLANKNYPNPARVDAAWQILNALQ
Experiment: qHTS Inhibitors of AmpC Beta-Lactamase (assay with detergent); also: nearly all actives have a fitted effect of over 25% in size;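 as to activity change, negative = inhibition: 0% = no-compound wells and -100% = no-enzyme wells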
Conditions: AmpC hydrolysis of nitrocefin, absorbance 480 nm, 0.01% Triton; activity change, negative = inhibition: at 114 µM (top of the series)
How it was run: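 AmpC (5.3 nM in the dispensed reagent) in 20 mM phosphate pH 7.0 with 0.01% (detergent screen) or 0.0001% Triton X-100 was preincubated with compounds for 15 min at room temperature. Nitrocefin was then added from an 800 uM solution, and hydrolysis was followed at 480 nm.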
Potency is read from the fitted curve at half-maximal effect; tags tell the direction and shape of the fitted curve.

With `COc1cccc(N2CCN(Cc3nc4ccccc4c(=O)[nH]3)CC2)c1` as the molecule, how does the Potency read?
The Potency was inconclusive [inhibitor, full curve, poor fit].

Which Potency does the source give for `CCOc1cccc(-c2nnc3sc(-c4ccc(C)cc4)nn23)c1` here?
The Potency was inconclusive [inhibitor, full curve].

For `O=C(c1cc(COc2cccc(C(F)(F)F)c2)on1)N1C[C@H]2CC[C@H]1C2`, which “activity change, negative = inhibition” value is on record?
The value was inactive: 0.54%.

How did the “activity change, negative = inhibition” value turn out when `Cc1ccc(CSCc2ccc(C(=O)NCCCN3CCOCC3)o2)cc1` was run?
Its value is inactive: 2.23%.

How did the “activity change, negative = inhibition” value turn out when `CCOc1cccc(-c2c(C(=O)N/N=C/c3ccc(Br)cc3)nnn2-c2nonc2N)c1` was run?
The value was inactive: -0.128%.

With `COC(=O)c1c(NC(=O)COC(=O)c2ccc(NC(=O)CC#N)cc2)sc2c1CCCCC2` as the molecule, how does the “activity change, negative = inhibition” value read?
The value was inactive: 2.36%.

With `CC1(C)S[C@@H]2[C@H](NC(=O)COc3ccccc3)C(=O)N2C1C(=O)OCc1cc2ccccc2n1S(=O)(=O)c1ccccc1` (stereo partly specified) as the molecule, how does the Potency read?
Its Potency is inconclusive [inhibitor, full curve, poor fit].

Which “activity change, negative = inhibition” value does the source give for `N=c1n(CCN2CCCCC2)c2ccccc2n1CC(=O)c1ccc(Cl)c(Cl)c1` here?
Its value is inactive: -2.41%.

For `CNC(=O)C1C(=S)NC(N)=C(C#N)C1c1ccccc1` (stereo unspecified), which Potency is on record?
The Potency was inconclusive [inhibitor, full curve, poor fit].

With `COc1ccc2nc(-c3cccc(N)c3)[nH]c2c1` as the molecule, how does the “activity change, negative = inhibition” value read?
The value was inactive: 2.01%.

Which “activity change, negative = inhibition” value does the source give for `O=C(O)C1C2C=CC(C2)C1C(=O)NCc1cccs1` (stereo unspecified) here?
The value was inactive: 2.43%.

Which Potency does the source give for `COC(=O)CSC1=C(C#N)C(c2ccc(F)cc2)CC(=O)N1` (stereo unspecified) here?
Its Potency is inconclusive [inhibitor, full curve].

`O=C(c1cc(=O)[nH]c2ccccc12)N1CCN(Cc2ccc3c(c2)OCO3)CC1` was tested. Which Potency did it give?
Its Potency is inconclusive [inhibitor, partial curve, poor fit].

For `COC(=O)c1cc(C(=O)OCC(=O)NC(=O)c2ccccc2)cc([N+](=O)[O-])c1`, which Potency is on record?
The Potency was inconclusive [inhibitor, full curve].

How did the Potency turn out when `O=C(N/N=C/c1ccc(Cl)c([N+](=O)[O-])c1)c1cc(-c2ccccc2)nc2ccccc12` was run?
Its Potency is inconclusive [inhibitor, single point].

How did the Potency turn out when `COc1ccc(CN2C(=O)NC(=O)/C(=C/c3ccc(OC)c(OC)c3OC)C2=O)cc1` was run?
The Potency was inconclusive [inhibitor, partial curve, poor fit].

With `CS(=O)(=O)N(CC(=O)NCC1CCCO1)c1ccc(F)c(Cl)c1` (stereo unspecified) as the molecule, how does the “activity change, negative = inhibition” value read?
The value was inactive: -11.4%.

With `N#CC1(Cc2ccc([N+](=O)[O-])cc2)c2ccccc2C=CN1C(=O)c1ccccc1` (stereo unspecified) as the molecule, how does the Potency read?
The Potency was inconclusive [inhibitor, single point].

Which “activity change, negative = inhibition” value does the source give for `Cc1cccc(NC(=O)c2ccccc2OCC(=O)c2ccc(F)cc2)c1` here?
The value was inactive: -9.4%.

How did the “activity change, negative = inhibition” value turn out when `COc1ccc(C2(CNC(=O)/C=C\c3ccco3)CCCC2)cc1OC` was run?
Its value is inactive: -4.43%.

Which Potency does the source give for `COc1ccc(CNC(=O)c2c3c(nc4ccccc24)C(=O)N(C2CCCCC2)C3)c(OC)c1` here?
The Potency was inconclusive [inhibitor, full curve, poor fit].

How did the “activity change, negative = inhibition” value turn out when `Oc1ccc(Br)cc1/C=N/N1CCCCC1` was run?
The value was inactive: -9.72%.

With `CS(=O)(=O)Nc1cccc(C2=NN(S(=O)(=O)c3ccc(F)cc3)C(c3cccs3)C2)c1` (stereo unspecified) as the molecule, how does the “activity change, negative = inhibition” value read?
The value was inactive: -13.4%.

Which Potency does the source give for `N#C/C(=C\C=C\c1ccccc1)c1nc(-c2ccc(Cl)cc2)cs1` here?
The Potency was inconclusive [inhibitor, full curve, poor fit].

How did the “activity change, negative = inhibition” value turn out when `CN1CCN(NC(=O)COc2cccc(C(F)(F)F)c2)CC1` was run?
Its value is inactive: -17.1%.

How did the “activity change, negative = inhibition” value turn out when `CCCCC(CC)CNC(=O)CN1C(=O)CSc2ccc(S(=O)(=O)N3CCOCC3)cc21` (stereo unspecified) was run?
The value was inactive: -0.0591%.

With `CN(C)c1ccc(/C=C(\NC(=O)c2ccccc2)C(=O)NCCN2CCOCC2)cc1` as the molecule, how does the “activity change, negative = inhibition” value read?
Its value is inactive: 1.54%.

How did the Potency turn out when `COc1ccccc1NC(=O)Nc1ccc(C)cn1` was run?
Its Potency is inconclusive [inhibitor, full curve, poor fit].

Which “activity change, negative = inhibition” value does the source give for `CCOC(=O)C1(Cc2cccc(F)c2)CCN(CC2CC2)CC1` here?
Its value is inactive: 3.9%.

`CCCN1C(=O)/C(=C/c2ccncc2)SC1=S` was tested. Which “activity change, negative = inhibition” value did it give?
The value was inactive: -4.19%.

Which Potency does the source give for `Cc1ccccc1C(=O)NNC(=O)C1CCN(C(=O)Nc2ccccc2)CC1` here?
Its Potency is inconclusive [inhibitor, full curve, poor fit].

Which Potency does the source give for `CC1=C(C(=O)Nc2cc(-c3cccc(F)c3)[nH]n2)C2(CCCCC2)OC1=O` here?
The Potency was inconclusive [inhibitor, full curve, poor fit].

How did the Potency turn out when `CC(=O)c1cnc2nc(SCc3ccccc3C)nn2c1C` was run?
Its Potency is inconclusive [inhibitor, partial curve, poor fit].

With `CCC[C@H](CN[C@@H](CNC)[C@H](C)CC)NCCc1cc(C(F)(F)F)cc(C(F)(F)F)c1` as the molecule, how does the “activity change, negative = inhibition” value read?
Its value is inactive: -18.9%.

With `COc1ccccc1OCC(=O)Nc1cccc(-c2nc3ccccc3o2)c1` as the molecule, how does the Potency read?
The Potency was inconclusive [inhibitor, single point].

For `C/C(=N\NC(=S)Nc1cccc(C)c1)c1ccccc1`, which “activity change, negative = inhibition” value is on record?
The value was inactive: 0.163%.

How did the Potency turn out when `CCOc1ccccc1CNC(=O)C1CCC(=O)N1C(C)C` (stereo unspecified) was run?
Its Potency is inconclusive [inhibitor, full curve, poor fit].

Which “activity change, negative = inhibition” value does the source give for `CC(C)(NS(=O)(=O)OCC(Cl)(Cl)Cl)c1ccccc1` here?
Its value is inactive: -4.93%.

Which Potency does the source give for `O=C(Nc1ccccc1F)c1ccc(OCc2ccccc2)cc1` here?
Its Potency is inconclusive [inhibitor, full curve].

Which “activity change, negative = inhibition” value does the source give for `Cc1c(Cl)cccc1NC(=O)Nc1nnc(N2CCCCCC2)s1` here?
Its value is inactive: 16.3%.

For `Cc1onc(-c2ccccc2)c1C(=O)OCCOc1ccc([N+](=O)[O-])cc1[N+](=O)[O-]`, which Potency is on record?
The Potency was inconclusive [inhibitor, partial curve, poor fit].

For `CCC(=O)N(C)CCc1cc2c(c(OC)c1/C=N/NC(=O)c1ccc(Br)cc1)OCO2`, which Potency is on record?
Its Potency is inconclusive [inhibitor, full curve].

Which Potency does the source give for `CC(=O)Nc1ccc(NC(=O)COC(=O)c2ccc(C)s2)cc1` here?
The Potency was inconclusive [inhibitor, partial curve, poor fit].

For `CCc1ccc(CNC(=O)c2ccc(NC(=O)N3CCCCc4ccccc43)cc2)cc1`, which “activity change, negative = inhibition” value is on record?
Its value is inactive: 0.497%.

For `Cc1ccc(Sc2ncccc2C(=O)O)c(C)c1`, which Potency is on record?
Its Potency is inconclusive [inhibitor, full curve].

With `Cc1cc(C)c(NC(=O)CNC(=O)c2ccccc2OCc2c(C)noc2C)c(C)c1` as the molecule, how does the Potency read?
The Potency was inconclusive [inhibitor, partial curve, poor fit].
